# Assay results published in the supplement of paper PMC3334620.
# The full ranking holds about 33,000 sequences; the median of “E-score (-0.5 to 0.5)” is about -0.016, and the highest 2% start at about 0.32. This is one part of the list.
# Biological target: T1, Stp1 (UniProt B3LFK1)
# T1 sequence: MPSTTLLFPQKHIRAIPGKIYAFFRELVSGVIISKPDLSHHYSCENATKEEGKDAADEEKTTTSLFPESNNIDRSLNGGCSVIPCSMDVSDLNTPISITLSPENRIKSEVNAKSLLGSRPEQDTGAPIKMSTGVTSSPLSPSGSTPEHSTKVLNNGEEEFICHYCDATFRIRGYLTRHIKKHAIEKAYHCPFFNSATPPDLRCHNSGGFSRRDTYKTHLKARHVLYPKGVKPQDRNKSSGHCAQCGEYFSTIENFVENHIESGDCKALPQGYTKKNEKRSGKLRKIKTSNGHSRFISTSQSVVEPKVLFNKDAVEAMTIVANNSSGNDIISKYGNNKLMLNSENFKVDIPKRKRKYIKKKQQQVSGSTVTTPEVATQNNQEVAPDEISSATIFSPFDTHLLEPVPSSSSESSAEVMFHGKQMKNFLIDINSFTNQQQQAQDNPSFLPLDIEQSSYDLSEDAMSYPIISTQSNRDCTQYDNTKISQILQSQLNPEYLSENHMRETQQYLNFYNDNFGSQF
# Assay: PBM E-score (8-mer binding enrichment) (E-score (-0.5 to 0.5)); higher = stronger / more preferred TF binding; most listed sequences are background and not binding sites
# Conditions: protein concentration: 200 nM; construct: GST-full length
# How it was run: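 Using PURExpress in vitro transcription/translation, GST-tagged yeast transcription factors were made in full-length or DNA-binding-domain form. These were applied at about 100-200 nM to double-stranded universal all-10-mer Agilent arrays, and bound protein was detected with fluorescent anti-GST. Scans were normalised with masliner before the Universal PBM Analysis Suite assigned E-scores to ungapped eight-base words pooled with their reverse complements.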
row,Sequence,PBM E-score
1,GACAAGTA,-0.0307
2,ACAAACCG,-0.0683
3,CCAATTGG,-0.0737
4,CCGTTTTA,0.13
5,ACATAGTG,-0.00204
6,GACTAACC,-0.18
7,GCTGCTTA,-0.0456
8,AGCTTCGG,-0.155
9,ATGATTGC,0.0859
10,TGATGGCA,-0.165
11,CACTATCG,0.124
12,CGATACTA,0.156
13,CCTCGAGG,-0.161
14,CTTCCGGC,0.126
15,AGAAGATA,0.129
16,CGTTTATA,0.331
17,CCATTAAA,0.0525
18,CTCCGCAA,-0.117
19,CACTGGCC,-0.225
20,AGGCACAC,0.0169
21,ACGCAGCA,-0.0873
22,GATAAGCA,0.0561
23,CATCTGAG,0.177
24,AGGGGTGC,-0.0447

row,Sequence,PBM E-score
1,GTGAGAGA,0.0511
2,ACGTGACC,-0.161
3,ACTCTCGG,-0.0544
4,TCCGAAAA,-0.159
5,CTATGATC,0.0732
6,ACCCTGAG,-0.216
7,ATAACTAG,0.0832
8,GACGCACA,-0.0542
9,ACCGGCTC,-0.0667
10,ACACCTCA,-0.159
11,CCAGGTTA,-0.165
12,GTTCAAAA,0.185
13,GAATCGGC,0.268
14,CACCCATA,-0.029
15,GATGGACA,-0.151
16,CAAAGACC,-0.0037
17,AGGCTGGA,-0.262
18,CATCCGCC,-0.0808
19,ACACGATC,0.00182
20,ACTAATCT,-0.0199
21,ATGACCTA,-0.0891
22,CGCGCCCC,0.209
23,CCGTCATC,-0.0428
24,ATGATTCA,-0.0956

row,Sequence,PBM E-score
1,AAGTTCGT,5e-05
2,GAGCTGCA,-0.143
3,AGATTAGA,0.0144
4,GAATACCC,-0.105
5,ACAAGTAA,-0.0143
6,CGCCAGAC,0.0361
7,CAGACTCC,-0.148
8,CTTTATAC,0.0213
9,GCCTCCAA,-0.0782
10,AGACGAGC,0.0654
11,CCATGACG,0.0214
12,GCCGGAGA,0.0478
13,CTGCGCTA,-0.221
14,GCCGACTA,0.132
15,CTGGTCTA,-0.11
16,AGTAGAAT,0.196
17,ACCGCTTG,0.00664
18,CAACGGGA,0.0536
19,AGATTTCC,-0.00021
20,AAGGCAAA,0.247
21,ACGTTCTA,-0.0268
22,CGACATCC,-0.0307
23,AACAGGAG,-0.283
24,CGCGTGAC,0.0453

row,Sequence,PBM E-score
1,GTGGTACA,-0.069
2,CCGCATCG,0.175
3,TACGAGAA,0.0776
4,TCGCGAAA,0.0549
5,GCTTTTAA,-0.0796
6,TGAAATAA,0.0772
7,CTAAAATC,-0.102
8,AAAATAAT,0.248
9,CGGTATGC,-0.0255
10,CAGTATGA,0.111
11,ACGGCATG,0.422
12,CACCACGA,-0.0238
13,AGACACAG,-0.286
14,CTGGTTGA,-0.233
15,GGAAGCTA,-0.174
16,AGTAGCGA,-0.0798
17,AGTCCGGA,0.00876
18,CCAATAAA,0.25
19,GACCTGTA,-0.216
20,ATAAAGGA,-0.201
21,GCACAGAC,0.142
22,CGAAGGTA,-0.00193
